Assay results: PubChem BioAssay (NCATS)
Where “and” joins values, the source holds several entries; their conditions need not be identical. Equal values may be shown once. The shares of active, inactive and inconclusive entries below differ from those in the screen. Calls of active or inactive are those of the source. Calls come from the whole dose curve; as a rule, active = well fitted curve in either direction with a large enough effect (not every such curve was filed as active); inconclusive = small, poorly fitted or top-dose-only effect, or another doubt; inactive = flat fitted curve, though single readings scatter.

Assay: NFAT Signaling Pathway (AID 444);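 note: carbachol stimulus at about its EC50 of 1 µM final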
Conditions: Jurkat NFAT-bla M1, carbachol, beta-lactamase ratio, 5 h; at 7.69 µM (top of the series)
Outline: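 Jurkat cells carrying an NFAT-driven β-lactamase reporter and co-transfected muscarinic M1 receptor were treated with compound plus carbachol (1 uM final, an EC50 level) for 5 h at 37 °C. CCF4 loading followed for 1 h at RT; 460/530 nm ratio gave %activity.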
% is set by controls: 0 for no effect and ±100 for the full control effect.

Compound | activity change, negative = inhibition
O=C1CSC2(CCN(CCCN3c4ccccc4Sc4ccc(Cl)cc43)CC2)N1 | inconclusive: -57.9% [inhibitor]
CNCCC=C1c2ccccc2CCc2ccccc21 | active: -80.1%
Cc1cc(N)c2cc(NC(=O)Nc3ccc4nc(C)cc(N)c4c3)ccc2n1 | inactive: -11.7%

Same assay, conditions: Jurkat NFAT-bla M1, carbachol, beta-lactamase ratio, 5 h; at 17.2 µM (top of the series)

Compound | activity change, negative = inhibition
CC(=O)Oc1ccc(C(c2ccc(OC(C)=O)cc2)c2ccccn2)cc1 | inactive: 7.84% and inactive: -13.9%
CCOC(=O)C1=C(C)NC(C)=C(C(=O)OC)C1c1cccc([N+](=O)[O-])c1 (stereo not drawn) | inconclusive: -80.7% [inhibitor]
CC[C@]1(O)C[C@@H]2CN(CCc3c([nH]c4ccccc34)[C@@](C(=O)OC)(c3cc4c(cc3OC)N(C)[C@H]3[C@@](O)(C(=O)OC)[C@H](OC(C)=O)[C@]5(CC)C=CCN6CC[C@]43[C@@H]65)C2)C1 | inconclusive: -37.2% [inhibitor]
CCCCOC(=O)c1ccc(N)cc1 | inactive: -8.04%
c1cnc(N2CCN(Cc3ccc4c(c3)OCO4)CC2)nc1 | inconclusive: -42.3% [inhibitor]
CN1CCCN(C(c2ccccc2)c2ccc(Cl)cc2)CC1 (stereo not drawn) | active: -95.8%
CN1CCN(C(c2ccccc2)c2ccccc2)CC1 | inconclusive: 6.99% [inhibitor]
CC1=C(/C=C/C(C)=C/C=C/C(C)=C/C(=O)O)C(C)(C)CCC1 | inconclusive: -57.1% [inhibitor]
CN(C)CCOc1ccccc1Cc1ccccc1 | inconclusive: -95.3% [inhibitor]
O=C(c1ccc(OCCN2CCCCC2)cc1)c1c(-c2ccc(O)cc2)sc2cc(O)ccc12 | inconclusive: -43.7% [inhibitor]
CCN(CCCCOC(=O)c1ccc(OC)c(OC)c1)C(C)Cc1ccc(OC)cc1 (stereo not drawn) | active: -93.3%
Clc1ccc2c(c1)C(N1CCNCC1)=Nc1ccccc1O2 | inconclusive: -42.6% [inhibitor] and inconclusive: -68.2% [inhibitor]
C1CCC(C(CC2CCCCN2)C2CCCCC2)CC1 (stereo not drawn) | inconclusive: -77.8% [inhibitor]
OCCN1CCN(CCCN2c3ccccc3Sc3ccc(Cl)cc32)CC1 | inconclusive: -56% [inhibitor] and inconclusive: -74% [inhibitor]
CCCCCCCCNC(C)C(O)c1ccc(SC(C)C)cc1 (stereo not drawn) | inconclusive: -73.8% [inhibitor]
CCN(CC)CCNc1ccc(CO)c2sc3ccccc3c(=O)c12 | inactive: -29.8%
CCCCC(=O)O[C@]1(C(=O)CO)CC[C@H]2[C@@H]3CCC4=CC(=O)CC[C@]4(C)[C@H]3[C@@H](O)C[C@@]21C | inconclusive: -54.7% [inhibitor]
CNCCC=C1c2ccccc2CCc2ccccc21 | inconclusive: -53.4% [inhibitor] and active: -86.8%
O=c1n(CCCN2CCN(c3cccc(Cl)c3)CC2)nc2ccccn12 | inconclusive: -34.2% [inhibitor]
Cc1cc(-c2ccccc2)nnc1NCCN1CCOCC1 | inactive: -10.7% and inactive: -25.7%
CC(C[N+](C)(C)C)OC(N)=O (stereo not drawn) | inconclusive: 11.9% [activator]
Cc1cc(=O)n(-c2ccccc2)n1C | inactive: -2.45%
COc1cc(C(=O)OCCCN2CCCN(CCCOC(=O)c3cc(OC)c(OC)c(OC)c3)CC2)cc(OC)c1OC | inconclusive: -67.1% [inhibitor]
C[C@@H]1C[C@H]2[C@@H]3CCC4=CC(=O)C=C[C@]4(C)[C@@]3(F)[C@@H](O)C[C@]2(C)[C@H]1C(=O)CO | inactive: -16.3%
CC(=O)c1ccc2c(c1)N(CCCN1CCC(CCO)CC1)c1ccccc1S2 | inconclusive: -68.7% [inhibitor]

Same assay, conditions: Jurkat NFAT-bla M1, carbachol, beta-lactamase ratio, 5 h; at 38 µM (top of the series)

Compound | activity change, negative = inhibition
c1cnc(N2CCN(Cc3ccc4c(c3)OCO4)CC2)nc1 | inconclusive: -32.4% [inhibitor]
O=C(c1ccc(OCCN2CCCCC2)cc1)c1c(-c2ccc(O)cc2)sc2cc(O)ccc12 | inconclusive: -101% [inhibitor]
Clc1ccc2c(c1)C(N1CCNCC1)=Nc1ccccc1O2 | inconclusive: -49% [inhibitor]
CCCN(CCC)CCc1cccc2c1CC(=O)N2 | inconclusive: -44.7% [inhibitor]
OCCN1CCN(CCCN2c3ccccc3Sc3ccc(Cl)cc32)CC1 | inconclusive: -72% [inhibitor]
CCN1CCc2nc(N)oc2CC1 | inactive: -7.89%
CN1CCN(CCC=C2c3ccccc3Sc3ccc(S(=O)(=O)N(C)C)cc32)CC1 | inconclusive: -91.1% [inhibitor]
CNCCC=C1c2ccccc2CCc2ccccc21 | inconclusive: -64.8% [inhibitor]
COc1cc(NS(C)(=O)=O)ccc1Nc1c2ccccc2nc2ccccc12 | inconclusive: -63.7% [inhibitor]
COc1cc(C(=O)OCCCN2CCCN(CCCOC(=O)c3cc(OC)c(OC)c(OC)c3)CC2)cc(OC)c1OC | inconclusive: -86.2% [inhibitor]
